# Results from the supplement of paper PMC11417369.
# ± gives the standard deviation of the averaged measurements. The list shows a part of the results.
# Tested on: PfAP2-G AP2 domain (GST-tagged)
# Test: gcPBM binding intensity (ln(normalized median fluorescence intensity)); higher = stronger DNA binding
# In short: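 GST-fused DNA-binding domains of P. falciparum, expressed in E. coli, were applied at about 25 μg on average for 1 h to an Agilent 4 × 180k array of primer-extended double-stranded 36-bp intergenic genomic probes and negative controls. Binding intensity is the highest Masliner-normalised natural-log median intensity across replicate spots of either probe orientation, measured with Alexa488 anti-GST antibody and a 488 nm scan.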
row,Sequence,gcPBM binding intensity (ln)
1,AATGTGTACGCACGCACACACAAAAAAATATATATA [CACACA_site2913],11.6 ± 1.2
2,TTATGCAATTTGTATTGTACATTCATGATATTAATA [XGTACX_site5070],10.6 ± 0.38
3,TAAATATATTTATAAGCACACACTAATAAACCAACA [CACACA_site8022],10.3 ± 0.18
4,TATTTATCTTTACGCACACACTTGCATGTACAAAAG [CACACA_site4753],11.2 ± 0.84
5,ATATGTATGTATTTATTATTGTGCATTGTATTTATA [CACACA_negctrl_site664],10.055 ± 0.007
6,TTTATTTTATTTTCATGTACAAAAGGGGAATAATAA [XGTACX_site2704],10.9 ± 0.71
7,GATTTATACAAATATGTACACACTAAATATATATTA [CACACA_site455],11.6 ± 0.9
8,TTTGAATATTCATATGCACACAAATTAATATACATA [CACACA_site8040],10.1 ± 0.17
9,TTTATTTATGTGTGGGTGCATATACGTATGATGTAT,10.6 ± 0.49
10,AATACCCATATCTTCACACATACATAATAAATTATA [CACACA_site5367],10.1 ± 0.3
11,AGCAACTCAATATATATAAGAATTGTAATATAATAT [GTGCAC_negctrl_site429],9.47 ± 0.28
12,ATACAATACAAAAACACACACAAAAAAAGAAAAGGA [CACACA_site2156],10 ± 0.11
13,GTCGTATAATTTTCAGTGCAATATTTGAATAAATGG [GTGCAC_site9404],10.1 ± 0.18
14,ATTTATTAATTACCATGTATAAAAAATTATATAATA [CACACA_negctrl_site581],9.87 ± 0.16
15,ATATATTTATATATTTGTACATATAATATCTTCTTT [XGTACX_site8504],10.7 ± 0.45
16,ACACATAATATGTGTAGTACTTTTTCTTTAACATTA [XGTACX_site1436],11.3 ± 0.73
17,TATAAATATAAATATACACACATATATTTATTTATA [CACACA_site6890],9.645 ± 0.078
18,AACAGTAACATTGAATGTACTTAATTTTAAGAAAAT [XGTACX_site2971],11.2 ± 0.73
19,TTAAAATAAAGAAAATGTACATAAATTAAAATAAAG [XGTACX_site2281],11.3 ± 0.71
20,TTTTTTTTTTTTTTTATAGTACATTACCAAAAAAAA [CACACA_negctrl_site1197],11 ± 0.81
21,ATTTATTGACTATTTACACACATATTTATTATAATA [CACACA_site1624],10.2 ± 0.13
22,CTTCCAATAAAAAATGCACACATTGAAAATATTGAA [CACACA_site2688],9.93 ± 0.11
23,AAATTATATGAACATTGTACTTTATATATGTAAGAA [XGTACX_site1611],11.2 ± 0.67

row,Sequence,gcPBM binding intensity (ln)
1,ACACACATATATACATGTACATATATATATATATAT [XGTACX_site451],11.2 ± 0.73
2,TGGGTAAACAGACACACACACATATAGATTTATATA [CACACA_site7026],10.04 ± 0.064
3,TCTTATCCATATATTACACACTATAAATAGAAATTA [CACACA_site6274],9.89 ± 0.16
4,ATTTGTATATATTAATGTACACACATGCGTATGTTC [XGTACX_site7579],11.2 ± 0.6
5,TATTTTGTTCTTTCCACACACAAATACAGATATTGT [CACACA_site6097],10.15 ± 0.021
6,AAGGTATATATAACTACACACTTATATATAATCTAA [CACACA_site92],9.825 ± 0.049
7,TATACATATGAAAATACACACATACATACATATATA [CACACA_site8484],9.915 ± 0.035
8,ATTATACATATATAAGTGCAATAATGTTTTTTCCTT,9.82 ± 0.21
9,ATATATTTTAATTGATGTACTTTTTTATGTTAATGA [XGTACX_site4316],11.4 ± 1
10,AACAGACAGAAACACACACACATATATATATATATA [CACACA_site3394],9.88 ± 0.12
11,TAATAAAATATGTACACACATACACCCATATATATA [CACACA_site1220],11.5 ± 0.9
12,TGTAGTCTGGAGAAAAGTACATAGTATCTGGTAACC [XGTACX_site2025],11.2 ± 0.81
13,ATTTTCCAAAATAATTGTACAGGAAAGAAATAATTA [XGTACX_site7424],10.9 ± 0.57
14,ATACATATTTTACATTCACACAACAAATTTATATTT [CACACA_site4700],10.2 ± 0.11
15,AGGAACAAAATATACTGTACTTTATTATTTTCAAAA [XGTACX_site4421],11.5 ± 0.86
16,ACAAAACAAAAAAACTCACACATATACGGCATGTCA [CACACA_site5608],9.9 ± 0.29
17,TTACTTTTAACAAATGTGCGCAGTTATCACACAGAC,10.6 ± 0.49
18,TATATTTTGTTCTGTTGTACTAAAAAAATCTTTATA [XGTACX_site8372],11.2 ± 0.71
19,ATTTATTTATTTATATGTACATATTTAAAGAGTTCA [XGTACX_site7631],11.2 ± 0.73
20,ATATATATATATATATGTACTAAGAATTCTTTAAAA [XGTACX_site8476],11 ± 0.82
21,TAATAATAAATTGGTTGTACAACCTTATACAGAATA [XGTACX_site2592],11.5 ± 0.79
22,ACACAAAAAATAAAAATATATATATATTATATATAT [CACACA_negctrl_site1489],9.49 ± 0.028
23,TAAAAAAATATATATACATGCATAGAAAAAAAAAAA [TGCATGCA_site552],9.61 ± 0.18

row,Sequence,gcPBM binding intensity (ln)
1,CATATAATTTTATGGGTGCATTTTTTTGTAAGACCA,10.6 ± 0.44
2,TTTTTTTATTAAAAATGTACAAAAATGAAAAAATAA [XGTACX_site8279],11 ± 0.59
3,CATTTTAAAGAAAATACACACAAAAATAAATATATA [CACACA_site1395],10.2 ± 0.11
4,TTTTAAACAAAAATTTGTACACAATAATTAAATATA [XGTACX_site6755],11.2 ± 0.79
5,ATTTAATTTTTTTTTTTTTTTTTTCAATCCCCTTTT [CACACA_negctrl_site1013],9.8 ± 0.42
6,ATCACATAAAATATGAATATATATTTTATATATATA [CACACA_negctrl_site340],9.62 ± 0.014
7,TTTAATTTTTTTTAAACACACACATTACATTCAAAA [CACACA_site7926],10 ± 0.16
8,AATATATAATTTTATAGTACATAATAAAAGAACAGG [XGTACX_site724],11.3 ± 0.62
9,TTATATTATGCTTGAATGCACTTTGAAGCACAATCT [GTGCAC_site9789],9.96 ± 0.23
10,TATTCAACATAATATGCACACAAAAATTATGGAACG [CACACA_site8660],10.1 ± 0.071
11,TTAAAAAAAAAAAGGTGTACTATAATTTAATATCAC [XGTACX_site6316],11.6 ± 1.1
12,TATATTTACGTATGTCGAACGTTATTTTGAACAACC [CACACA_negctrl_site1261],10.3 ± 0.2
13,TGTATGTCTTTATTTTGTACACAATATAAAAAATTA [XGTACX_site5441],11.2 ± 0.78
14,CGCACAAAAATATACACACACACATATATATTTATT [CACACA_site3645],10 ± 0.12
15,CGTTTATATAGTGATGCATGCATTGTTAACATGGTT [TGCATGCA_site418],9.97 ± 0.057
16,TTTATACACAAAAAATGTACATATATATAATGAATT [XGTACX_site1195],11.2 ± 0.72
17,ACATATAAAATGTATACACACAAATATTACAGAGAT [CACACA_site4920],10.19 ± 0.092
18,GCTTTTGAAAATATACACATGTTAGGAATACAGGGG [TGCATGCA_negctrl_site480],10.8 ± 0.46
19,TATAATAACAATTTAGTGCATATAATAATATTTTAT,9.58 ± 0.16
20,ATTTTTTTTCTTTTTTTTTTACATTTTTTTCTTTTT [CACACA_negctrl_site1289],9.63 ± 0.099
21,AATTAAGTTAAACATTAAAAAAAACAAAAAATTAAA [CACACA_negctrl_site1333],9.785 ± 0.064
22,AACATACACATATACACACACACATATATACATATA [CACACA_site1093],10.2 ± 0.19
23,AAAAAAAAAAAAACATGTACATAAATGTAAAAAAGT [XGTACX_site8158],11.3 ± 0.53

row,Sequence,gcPBM binding intensity (ln)
1,TATAAACCCACCTACACACACAACGTAAATGCATTG [CACACA_site2238],10.3 ± 0.18
2,ATTTAACAACTTCAAACACACAATATAGATTTATAT [CACACA_site7067],9.87 ± 0.042
3,ATATATACATATATATGTACGTATATTTTTATTTCT [XGTACX_site6198],11.6 ± 1.1
4,AATAATTAAAATTATCTACACACCTTTATAAATATA [CACACA_site9300],9.755 ± 0.035
5,AATTTAAACAAGGATCCACACACCCCAAAAAAAAAA [CACACA_site8125],10.6 ± 0.49
6,ATGCATATGTTTATTGCACACACCAAAAAGAAAACA [CACACA_site403],10.3 ± 0.16
7,AAAATGTGCCCACGCGTACACACAAAAAAAGAAAAA [CACACA_site2004],11.6 ± 0.79
8,TACAAACTATGATGCACACATATATATATGTATACA [CACACA_site1226],10.06 ± 0.021
9,GCCATTAATTTATACACACACATTATGATTTTTTAT [CACACA_site754],10.16 ± 0.014
10,CCTGAACACATACATACACACACACTAATAAAAAAA [CACACA_site8023],10.5 ± 0.56
11,TTTATATTATTTTAAACATGCACAAGTATAATTTAT [TGCATGCA_site233],10 ± 0.18
12,TAAATTTAGAAACACACACACATATATATATATATA [CACACA_site847],10.1 ± 0.36
13,TGTGGGAATAACCACACACACACACGCATATAAATA [CACACA_site7634],10.3 ± 0.2
14,AATATAAAACATATCACACATATGTATTTATGTATA [CACACA_site5763],9.62 ± 0.15
15,TATATGTCAATATCTACACACATATATATAATTATT [CACACA_site3156],9.87 ± 0.057
16,ATACATATTAAAGGATGTACACTTATATTTTTTAGA [XGTACX_site5406],11.4 ± 0.78
17,TTTTCATATGAACAATGTACACATCGTATAATTCTG [XGTACX_site4756],11.3 ± 0.67
18,TGAACAGACGAGCACACACACACATATATATATATA [CACACA_site1019],10.5 ± 0.62
19,CTCATAAAAATAACGTTAACATAAATTTATTGTGAT [XGTACX_negctrl_site169],9.905 ± 0.092
20,AAGGACACCTTCAAAACACACATACAAATAAATAGA [CACACA_site5771],10.22 ± 0.042
